What was measured:
IKK1, endogenous = target: T1, IKK1, endogenous (human, UniProt O15111 1-745); experiment: western blot of the CD70/CD27 receptor complex from Ramos cells, 15 min after CD70 (FIG. 5c)
T1 construct: mature; also called IKKα
T1 sequence (looked up): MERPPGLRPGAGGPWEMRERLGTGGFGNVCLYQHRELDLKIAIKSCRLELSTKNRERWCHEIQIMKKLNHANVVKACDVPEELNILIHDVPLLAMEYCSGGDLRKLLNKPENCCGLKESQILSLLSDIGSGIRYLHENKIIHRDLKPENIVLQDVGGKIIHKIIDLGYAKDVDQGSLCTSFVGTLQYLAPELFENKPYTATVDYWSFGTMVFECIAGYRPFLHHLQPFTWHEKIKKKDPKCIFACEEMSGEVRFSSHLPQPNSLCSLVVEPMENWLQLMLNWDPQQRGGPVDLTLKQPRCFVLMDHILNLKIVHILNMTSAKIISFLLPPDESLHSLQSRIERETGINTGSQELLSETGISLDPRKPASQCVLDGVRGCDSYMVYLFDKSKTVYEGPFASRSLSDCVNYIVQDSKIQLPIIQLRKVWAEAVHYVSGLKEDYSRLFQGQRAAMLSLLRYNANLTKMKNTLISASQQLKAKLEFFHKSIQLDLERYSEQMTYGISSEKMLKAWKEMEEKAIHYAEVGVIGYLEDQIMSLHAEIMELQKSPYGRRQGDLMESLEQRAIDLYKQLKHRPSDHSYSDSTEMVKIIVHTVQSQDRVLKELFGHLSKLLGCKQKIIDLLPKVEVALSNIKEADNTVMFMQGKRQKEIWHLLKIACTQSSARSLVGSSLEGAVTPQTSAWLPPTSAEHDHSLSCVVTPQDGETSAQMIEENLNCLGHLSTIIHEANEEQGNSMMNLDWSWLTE

NEMO, endogenous = target: T2, NEMO, endogenous (human, UniProt Q9Y6K9); experiment: western blot of CD70/CD27 receptor complexes (FIGS. 6a-d)
T2 construct: mature; also called IKKγ
Description: (§1) Transfections, immunoblotting and immunoprecipitations were performed as described in Example 2 and Example 3 of the Examples section. For immunoprecipitation of the CD70/CD27 ligand-receptor complexes from resting PBMC and Ramos cells, cell lysates were prepared as described for the kinase tests aforementioned and incubated for 4 hours at 4° C. with 25 μl of 50% M2-FLAG agarose beads per ml of lysate. The TNF-receptor complex was precipitated as described (Zhang et al., 2000). The signalosome from cell lysates was immunoprecipitated using a 1:1 mixture of two different antibodies against IKK1 (M-280 and H-744, Santa Cruz). Immunoprecipitation was allowed to continue for 2 hours at 4° C., using 10 μg of anti-IKKα antibodies adsorbed to 25 μl of 50% protein-A-Sepharose beads per ml of lysate.

IKK2, endogenous = target: T3, IKK2, endogenous (human, UniProt O14920 1-756); experiment: as above
T3 construct: mature; also called IKKβ
T3 sequence (looked up): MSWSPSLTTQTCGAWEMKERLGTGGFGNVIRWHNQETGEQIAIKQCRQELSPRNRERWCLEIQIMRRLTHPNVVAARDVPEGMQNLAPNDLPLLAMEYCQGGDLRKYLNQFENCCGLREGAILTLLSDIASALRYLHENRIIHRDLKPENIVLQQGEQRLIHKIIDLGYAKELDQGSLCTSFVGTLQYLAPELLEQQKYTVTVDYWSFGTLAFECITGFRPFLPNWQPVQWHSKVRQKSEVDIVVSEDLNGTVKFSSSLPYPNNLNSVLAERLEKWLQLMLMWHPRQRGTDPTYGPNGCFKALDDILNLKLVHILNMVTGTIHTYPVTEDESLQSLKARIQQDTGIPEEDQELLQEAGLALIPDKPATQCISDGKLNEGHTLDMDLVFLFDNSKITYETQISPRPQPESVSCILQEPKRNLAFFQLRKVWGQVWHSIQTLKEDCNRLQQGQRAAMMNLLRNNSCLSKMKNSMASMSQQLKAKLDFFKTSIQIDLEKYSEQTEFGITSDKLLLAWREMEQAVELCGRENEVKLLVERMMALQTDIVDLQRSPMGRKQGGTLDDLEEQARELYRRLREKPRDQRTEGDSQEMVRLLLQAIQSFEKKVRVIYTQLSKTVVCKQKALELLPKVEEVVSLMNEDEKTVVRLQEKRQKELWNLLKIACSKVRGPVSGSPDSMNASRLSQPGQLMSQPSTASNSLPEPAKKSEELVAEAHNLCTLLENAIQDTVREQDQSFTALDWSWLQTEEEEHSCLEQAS
Description: as §1

p65, endogenous = target: T4, p65, endogenous (human, UniProt Q04206); experiment: western blot of the CD70/CD27 receptor complex from Ramos cells (FIG. 6a)
T4 construct: mature; also called RelA
Description: as §1

p50, endogenous = target: T5, p50, endogenous (human, UniProt P19838 1-433); experiment: as above
T5 construct: also called NF-κB1 processed form
T5 sequence (looked up): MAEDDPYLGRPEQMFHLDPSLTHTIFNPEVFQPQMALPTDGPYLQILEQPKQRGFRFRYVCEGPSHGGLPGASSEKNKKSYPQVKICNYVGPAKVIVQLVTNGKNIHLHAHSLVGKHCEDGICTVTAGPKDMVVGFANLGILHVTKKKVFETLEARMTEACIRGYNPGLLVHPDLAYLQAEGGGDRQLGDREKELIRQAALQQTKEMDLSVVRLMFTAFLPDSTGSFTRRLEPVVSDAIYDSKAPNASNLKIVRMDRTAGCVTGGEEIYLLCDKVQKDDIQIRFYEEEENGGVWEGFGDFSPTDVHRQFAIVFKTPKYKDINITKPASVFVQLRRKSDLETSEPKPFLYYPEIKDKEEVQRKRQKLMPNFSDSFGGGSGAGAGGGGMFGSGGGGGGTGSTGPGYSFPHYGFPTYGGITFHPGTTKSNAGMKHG
Description: as §1

IκBα, endogenous = target: T6, IκBα, endogenous (human, UniProt P25963 1-317); experiment: as above
T6 construct: mature
T6 sequence (looked up): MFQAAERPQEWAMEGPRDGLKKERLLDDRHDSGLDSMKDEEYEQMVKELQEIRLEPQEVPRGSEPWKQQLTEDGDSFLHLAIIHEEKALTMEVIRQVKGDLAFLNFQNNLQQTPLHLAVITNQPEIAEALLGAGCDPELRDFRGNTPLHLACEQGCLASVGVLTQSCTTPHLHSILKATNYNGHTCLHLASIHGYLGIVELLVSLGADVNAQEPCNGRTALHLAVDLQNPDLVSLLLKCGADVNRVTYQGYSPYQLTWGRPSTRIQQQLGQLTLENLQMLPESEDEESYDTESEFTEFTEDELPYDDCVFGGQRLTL
Description: as §1

[1] = target: T7, myc-NIK (NIK N-terminally fused to the myc tag) (human, UniProt Q99558 1-947); experiment: western blot of CD70/CD27 receptor complexes (FIG. 6d)
T7 construct: Expressed in HEK293T cells for co-immunoprecipitation, the reporter test and the kinase test; also called myc-tagged NIK; wild type NIK
Description: as §1
In NIK− cells, recruitment to the p55 TNF receptor occurred just as effectively as in the wild type cells (FIG. 6c, right panel). In contrast, recruitment of the signalosome components to CD27 was completely abolished (FIGS. 6c, d, left panels). Introduction of the wild type NIK, but not of “kinase-dead” NIK, to the NIK− cells reintated the recruitment in response to CD70 (FIG. 6d, middle and right panels). […] This recruitment could be observed both in cells expressing the wild type enzyme and in those that expressed its “[…]” mutant (FIG. 6d). […]

NF-κB2/p100, endogenous = target: T8, NF-κB2/p100, endogenous (human, UniProt Q00653 1-900); experiment: western blot of the CD70/CD27 receptor complex precipitated from Ramos cells (FIG. 6a)
T8 construct: mature
T8 sequence (looked up): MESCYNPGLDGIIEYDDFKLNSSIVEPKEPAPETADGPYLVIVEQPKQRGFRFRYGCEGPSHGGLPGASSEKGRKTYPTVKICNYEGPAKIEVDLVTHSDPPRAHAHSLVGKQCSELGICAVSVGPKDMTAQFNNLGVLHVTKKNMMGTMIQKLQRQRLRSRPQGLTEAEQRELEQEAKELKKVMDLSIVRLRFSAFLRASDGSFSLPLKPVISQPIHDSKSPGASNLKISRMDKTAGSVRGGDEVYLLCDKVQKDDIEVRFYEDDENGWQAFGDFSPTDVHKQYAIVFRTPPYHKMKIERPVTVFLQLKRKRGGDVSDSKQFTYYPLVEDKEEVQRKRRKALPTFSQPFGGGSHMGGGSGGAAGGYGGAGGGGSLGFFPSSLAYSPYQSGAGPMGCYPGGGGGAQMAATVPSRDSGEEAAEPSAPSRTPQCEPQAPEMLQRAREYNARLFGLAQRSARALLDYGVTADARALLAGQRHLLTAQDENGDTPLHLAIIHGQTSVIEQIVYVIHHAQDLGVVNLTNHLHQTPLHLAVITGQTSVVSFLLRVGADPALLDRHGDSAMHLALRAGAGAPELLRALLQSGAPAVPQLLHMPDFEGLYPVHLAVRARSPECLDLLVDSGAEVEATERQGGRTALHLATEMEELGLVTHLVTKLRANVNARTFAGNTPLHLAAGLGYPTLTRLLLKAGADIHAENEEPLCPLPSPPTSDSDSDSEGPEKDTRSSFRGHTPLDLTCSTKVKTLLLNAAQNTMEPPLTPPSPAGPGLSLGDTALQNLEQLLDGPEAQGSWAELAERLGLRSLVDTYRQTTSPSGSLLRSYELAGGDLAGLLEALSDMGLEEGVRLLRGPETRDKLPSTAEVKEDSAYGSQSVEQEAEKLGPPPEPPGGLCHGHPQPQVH
Description: as §1

binding result (IKK1, endogenous): binds
binding result (NEMO, endogenous): binds
binding result (IKK2, endogenous): binds
binding result (p65, endogenous): binds
binding result (p50, endogenous): binds
binding result (IκBα, endogenous): binds
binding result [1]: binds
binding result (NF-κB2/p100, endogenous): no binding
B1: CD27, endogenous on Ramos cells and PBMC (receptor)
chain: not shown
notes: whole, on cells; Receptor complexes were precipitated from cell lysates through the FLAG-tagged CD70 ligand; also called CD27 receptor

Reference: patent US20080025968A1 (YEDA RESEARCH AND DEVELOPMENT, published 2008)
